Drawing on PubChem BioAssay AID485344 (National Center for Advancing Translational Sciences (NCATS), 2010), this text covers inhibition for 96 molecules.

Structures are written as SMILES. Hit rate of the full screen: of about 340,000 compounds, about 6,900 (2%) were called active. No stated cut-off is given here; in the data, active means inhibition above about 30%; inactive means below that, where a call was filed. The entries are a selection whose mix differs from that of the whole data set. The source gives no active or inactive call for entries shown without one.

In this assay the target is D(2) dopamine receptor (Homo sapiens) (UniProt P14416). The assay is described as follows: HTS Assay for Allosteric Antagonists of the Human D2 Dopamine Receptor: Primary Screen for Antagonists. Further: 0% is about no effect. The settings on record: HEK293 TREx D2 cells, calcium flux, dopamine EC80; at 10 µM; stronger effect = higher value. The method, boiled down: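 Antagonism is scored as inhibition of an EC80 dopamine-evoked calcium signal in a force-coupled, tetracycline-inducible HEK293 T-REx D2 line, with compound present 180 s before agonist.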
Sequence of UniProt P14416 (P14416 whole entry, looked up): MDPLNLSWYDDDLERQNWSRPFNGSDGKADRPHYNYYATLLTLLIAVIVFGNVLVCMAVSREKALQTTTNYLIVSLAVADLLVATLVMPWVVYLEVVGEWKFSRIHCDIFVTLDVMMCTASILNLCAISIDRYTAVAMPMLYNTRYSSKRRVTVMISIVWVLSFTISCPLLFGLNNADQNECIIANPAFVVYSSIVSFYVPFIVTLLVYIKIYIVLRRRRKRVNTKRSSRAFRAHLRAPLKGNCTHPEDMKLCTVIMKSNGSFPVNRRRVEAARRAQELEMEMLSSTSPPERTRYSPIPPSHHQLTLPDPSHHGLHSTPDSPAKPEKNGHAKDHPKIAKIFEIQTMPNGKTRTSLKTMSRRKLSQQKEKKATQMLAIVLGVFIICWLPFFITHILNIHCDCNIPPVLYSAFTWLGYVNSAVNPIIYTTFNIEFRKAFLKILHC
Turning to `O=C(NCc1ccccc1Br)c1ccc(-n2cnc3cccnc32)cc1`, the inhibition was -0.206%. With `Cc1ccc(C)c(NC(=O)CSc2ccc(S(=O)(=O)N3CCCC3)cn2)c1`, the inhibition is active: 39.1%. As for `CCCCN(C)c1ncnc2c1cnn2-c1cccc(Cl)c1`, the inhibition is -2.19%. Then `CSc1ccccc1NC(=O)CCS(=O)(=O)c1nc(-c2cccs2)cc(C(F)(F)F)n1`, with -10.1%; and `COc1ccc(C(=O)N=c2sc3cc(Cl)ccc3n2C)cc1`, with 10.5%. To `Cc1ccc(NC(=O)CSc2nnc(-c3cc4occc4n3C)n2-c2ccccc2C)cc1F` belongs -0.921%.

As for `CCN(CC)CCOC(=O)c1ccc(NC(=O)CCn2c(=O)oc3ccccc32)cc1`, the inhibition is -26.6%. On to `Cc1ccccc1C(=O)Nc1nnc(S(=O)(=O)N2CCCc3ccccc32)s1`, for which the inhibition came to 24.6%. Consider `COc1ccc(C(=O)N2CCC(C(=O)Nc3ccc(OC)cc3OC)CC2)cc1`, for which the inhibition turned out to be 2.9%. Take `Cc1ccc(-n2c(=O)c3sccc3n(Cc3cc(=O)n4ccccc4n3)c2=O)cc1`: the inhibition was -12.2%. Turning to `O=C1C(c2ccc(C(F)(F)F)cc2)=C(Nc2ccc(Cl)cc2)c2ccccc21`, the inhibition is -1.39%. On to `Cc1nnsc1C(=O)Oc1ccccc1Cl`, for which the inhibition was -9.03%.

As to `O=C(CN1CCC(O)(c2ccccc2)CC1)Nc1ccc2c(c1)OCCO2`, the inhibition is active: 94.9%. With `Cc1ccc(CNC(=O)C(CC(C)C)N2Cc3ccccc3C2=O)cc1` (stereo unspecified), the inhibition turned out to be 8.05%. For `Cc1nc(NC(=O)c2cc(-n3cnnc3)ccc2Cl)ccc1Br`, the inhibition is active: 30.4%. On to `O=C(NCCSc1c(-c2ccc(Br)cc2)[nH]c2ccccc12)c1ccc(S(=O)(=O)N2CCOCC2)cc1`, for which the inhibition was 2.95%. Take `CC1Cc2ccccc2N1C(=O)CN(C)CC(=O)Nc1ccc(F)cc1` (stereo unspecified): the inhibition is active: 42.5%.

On to `Clc1cccc(-n2ncc3c(NCCCc4ccccc4)ncnc32)c1`, for which the inhibition came to 21.9%.

Regarding `Cc1cc(C)cc(NC(=O)C(Cc2ccccc2)N2Cc3ccccc3C2=O)c1` (stereo unspecified), the inhibition was determined as 3.83%. For the molecule `CCN(CC)c1ccc(NC(=O)Cn2c(C)c3cnn(-c4ccccc4)c(=O)c3c2C)c(C)c1`, the inhibition is -2.12%. In the case of `Cc1cc(Cl)ccc1NC(=O)CCS(=O)(=O)c1cc2c(cc1C)NC(=O)CO2`, the inhibition came out at 8.11%. For the molecule `COC(=O)c1c(-c2cccs2)csc1NC(=O)c1cc(OC)cc(OC)c1`, the inhibition was -11.5%. In the case of `COC(=O)c1c(NS(=O)(=O)c2cccs2)sc2c1CCCC2`, the inhibition was active: 41.4%. In the case of `CCc1cccc(C)c1Nc1c(-c2ccc(N(C)C)cc2)nc2ncccn12`, the inhibition was -1.03%.

As for `Cc1cc(C)c2oc(C(=O)Nc3c(C(=O)c4ccc(F)cc4)oc4ccccc34)cc(=O)c2c1`, the inhibition was 13.7%. `Cc1ccc(C)c(CN2C(=O)c3ccccc3Sc3ccc(C(=O)NCc4ccco4)cc32)c1`: the inhibition was 2.48%. In the case of `Cc1cccc(OCc2ccc(-c3nc(C#N)c(N4CCN(c5ccccc5)CC4)o3)o2)c1`, the inhibition is -2.73%.

For the molecule `CC1CCC(NC(=O)C2(C)Cc3ccccc3C(=O)N2Cc2ccccc2Cl)CC1` (stereo unspecified), the inhibition is -13.8%.

`Cc1cc(S(=O)(=O)Nc2cccc(-c3ccc(N4CCOCC4)nn3)c2)c(C)cc1Cl`: the inhibition was 5.37%. Then `COc1cc(NC(=O)c2nc3cc(C)c(C)cc3n(C)c2=O)cc(OC)c1OC`, with 8.75%. Take `Cc1ccc(CCNC(=O)c2sc3ncccc3c2-n2cccc2)cc1`: the inhibition is 26%. Turning to `COc1ccc(N2CCN(S(=O)(=O)c3ccc(-c4cc(C(F)(F)F)on4)s3)CC2)cc1`, the inhibition was 0.0929%. Consider `COc1cccc(NC(=O)CSc2nc(O)c(C/C=C/c3ccccc3)c(=O)[nH]2)c1`, for which the inhibition is -6.22%. For `CCC(=O)Nc1cc(C(=O)NCc2ccc(C)cc2)ccc1S(=O)(=O)c1ccc(C)cc1`, the inhibition is -4.7%. Regarding `COc1ccc(C(=O)NC2(C(F)(F)F)C(=O)NC(C)=C2C#N)cc1` (stereo unspecified), the inhibition was -6.18%. To `Cc1ccc2c(c1)C(c1ccc(F)cc1)N(C(=O)C(C)C)CC(=O)N2` (stereo unspecified) belongs -18.3%.

In the case of `CCc1cccc(NC(=O)Cn2nc(CC)n3c(cc4cc(C)ccc43)c2=O)c1`, the inhibition is -6.46%. As to `O=C(O)C1CCCCC1C(=O)Nc1ccccn1` (stereo unspecified), the inhibition was active: 40.6%. In the case of `O=c1oc2ccc3ccccc3c2cc1-c1nnc(Nc2ccccc2)s1`, the inhibition is 3.35%.

Take `COc1ccc(Cl)cc1NC(=O)C(C)n1nnc2sc3c(c2c1=O)CCCC3` (stereo unspecified): the inhibition was found to be 10.7%.

With `Cc1cc(C)cc(N2C(=O)CC(c3ccc(C(F)(F)F)cc3)C3=C2COC3=O)c1` (stereo unspecified), the inhibition was found to be 13.5%. On to `COc1ccc2c(C)c(CC(=O)NCCc3ccccc3)c(=O)oc2c1OC`, for which the inhibition turned out to be 19.7%. To `Cc1cccc(NC(=O)CSc2nc(-c3cccs3)cc(C(F)(F)F)c2C#N)c1` belongs -23.6%; to `COc1ccc(Cn2c(SCC(=O)NCc3ccccc3)nc3ccccc32)cc1`, 0.135%. On to `CCCCn1c(Oc2cccc(C(=O)OC)c2)nc2c1c(=O)n(C)c(=O)n2C`, for which the inhibition is 8.36%. To `Cc1ccc(C(=O)NCC(=O)OCc2cc(=O)n3nc(C4CCCCC4)sc3n2)cc1` belongs -8.43%; to `CCOc1ccc(NC(=O)Cn2nnc(C(=O)OC)c2C(=O)OC)cc1`, 20.1%. Take `CC[C@H](C)[C@H](NC(=O)[C@H](Cc1ccc(O)cc1)NC(=O)[C@@H](N)C(C)C)C(=O)N[C@@H](Cc1cnc[nH]1)C(=O)N1CCC[C@H]1C(=O)N[C@@H](Cc1ccccc1)C(=O)O`: the inhibition is active: 33.8%.

`CCN(CC)c1ccc(NC(=O)c2cc(CN3CCCC3)on2)c(C)c1`: the inhibition is -6.83%. Turning to `CCOc1cc(CNC(=O)c2ccc(NC(=O)c3nsc4ccccc34)cc2)ccc1OC`, the inhibition came to 22.3%.

Take `CCOc1ccc(NC(=O)CC2C(=O)N(c3cccc(OC)c3)C(=O)N2C2CCCCC2)cc1` (stereo unspecified): the inhibition is 8.41%. As for `Cn1c(=O)c2ccccc2n2c(CCC(=O)N3CCN(c4cccc(Cl)c4)CC3)nnc12`, the inhibition was 9.22%.

With `CCNC(=O)CCSc1nnc(-c2ccc(O)cc2)o1`, the inhibition turned out to be 1.41%. For `CCC(Oc1ccc(F)cc1)C(=O)Nc1cc(-c2ccc(C)cc2)no1` (stereo unspecified), the inhibition worked out at 9.65%. For the molecule `COc1cccc(CNC(=O)Nc2cc(C(=O)NCc3cccc(F)c3)ccc2N2CCCC2)c1`, the inhibition is -22.6%. Then `COC(=O)c1cc(NS(=O)(=O)c2ccc3c(c2)OCCO3)ccc1Cl`, with -0.0067%; and `CCOc1ccccc1NC(=O)CSc1nc2ccccc2nc1N1CCOCC1`, with 14.7%. Then `Cc1cc(F)ccc1NC(=O)c1csc2c1CCC(C)C2` (stereo unspecified), with 11.4%. Then `Cc1ccccc1NC(=O)CSc1c(C(C)C)cnc2c1c(=O)n(C)c(=O)n2C`, with -22.5%; and `CCN(CC)S(=O)(=O)c1ccc(NC(=O)Cn2ncc3c([nH]c4ccccc43)c2=O)cc1`, with 8.4%; and `Cc1[nH]c2ccc(C(=O)N3CCN(c4ccccc4F)CC3)cc2c1C`, with -0.302%.

On to `CC(Oc1ccccc1)C(=O)Nc1ccc(C(=O)OCc2cc(=O)n3nc(C(C)C)sc3n2)cc1` (stereo unspecified), for which the inhibition was 2.18%. On to `O=C(NCCc1ccc(F)cc1)C(=O)NCC(c1ccco1)S(=O)(=O)c1ccccc1` (stereo unspecified), for which the inhibition is -17.4%. `CCOc1ccc(/C=C/c2nc(C#N)c(N3CCN(CC)CC3)o2)cc1`: the inhibition is -13.9%. For the molecule `CCc1ccc(NC(=O)CSc2nc3nc(C)cc(C)n3n2)cc1`, the inhibition was 3.18%. Then `COc1ccc(-c2noc(N3CCC(C(=O)Nc4cccc(C)c4C)CC3)n2)cc1`, with -13.8%; and `COc1ccc(CCNC(=O)c2ccc3c(c2)CCN3S(=O)(=O)c2ccccc2)cc1`, with -6.92%; and `CCOc1cc(CNC(=O)c2cc(-c3ccccc3)n[nH]2)cc(OCC)c1OCC`, with 3.17%. As for `COc1ccc(NC(=O)c2oc3ccc(S(=O)(=O)N4CCOCC4)cc3c2C)c(OC)c1`, the inhibition amounted to 25.3%. Regarding `COc1ccc(CCNC(=O)c2cnn(-c3ccc(F)cc3)c2C2CCN(C(=O)OC(C)(C)C)CC2)cc1OC`, the inhibition was -2.06%. On to `COc1ccc(N2CCN(C(=O)c3cc4c(=O)n(Cc5cccnc5)ccc4nc3C)CC2)cc1`, for which the inhibition is -8.08%. To `O=C(CN1C(=O)C2(SCC(=O)N2c2ccc(F)c(F)c2)c2ccccc21)NCCc1ccccc1` (stereo unspecified) belongs 6.84%; to `CCOc1cc(C(c2c(C)[nH]n(-c3ccccc3)c2=O)c2c(C)[nH]n(-c3ccccc3)c2=O)ccc1O`, 10.5%; to `CCc1ccccc1NC(=O)CN(C)S(=O)(=O)c1cccc2nsnc12`, -11.3%.

For the molecule `CCN(CC)c1ccc(NC(=O)c2c(C)nn(-c3ccc(F)cc3)c2-n2cccc2)c(C)c1`, the inhibition was -2.27%. For `COc1ccc(OC)c(NC(=O)c2c(NCc3cccs3)sc3c2CCCCC3)c1`, the inhibition was found to be 1.15%.

Turning to `COc1ccc(-c2ccc(NS(=O)(=O)c3ccc(NC(C)=O)cc3)cc2)nn1`, the inhibition is 6.21%. For the molecule `Fc1ccccc1Nc1c2c(nc3ccccc13)CCC2`, the inhibition was 9.18%. For the molecule `COc1cccc2cc(C(=O)N3CCN(c4cc(C)ccc4C)CC3)c(=O)oc12`, the inhibition worked out at 8.48%. With `Cc1cc(OCC(O)CN2CCN(c3ccccn3)CC2)cc(C)c1Cl` (stereo unspecified), the inhibition is active: 43.2%.

Consider `Cc1nc(SCC(=O)N2CCN(c3ccccc3)CC2)[nH]c(=O)c1C`, for which the inhibition worked out at 1.43%. On to `CCOC(=O)c1scc(-c2ccccc2)c1S(=O)(=O)N1CCN(c2ccc(Cl)cc2)CC1`, for which the inhibition is 3.71%.

In the case of `CCN(CC)c1cc(C)c2cc(NC(=O)c3ccc(OC)c(OC)c3)ccc2n1`, the inhibition came to 20.5%. Consider `Cc1ccc(NC(=O)c2ccc(NC(=O)N3CCSc4ncccc43)cc2)c(Cl)c1`, for which the inhibition came out at 0.253%.

Turning to `COc1cccc(CN2C(=O)c3ccccc3Sc3ccc(C(=O)NCc4ccccc4)cc32)c1`, the inhibition is -11.3%.

For `COc1ccccc1C(=O)Nc1c(C(=O)Nc2cc(Cl)ccc2C)sc2nc(C)cc(C)c12`, the inhibition is 1.69%.

Turning to `COc1cccc(N2CCN(C(=O)c3cnc4c(-c5ccccc5)c(C)nn4c3C)CC2)c1`, the inhibition worked out at 11.3%. As for `Cc1ccccc1NC(=O)NCCc1c[nH]c2ccccc12`, the inhibition amounted to 21.4%.

`COc1ccc(-c2cc(C)no2)cc1S(=O)(=O)N1CCN(c2cccc(C)c2)C(C)C1` (stereo unspecified): the inhibition is 6.41%.

Turning to `O=C(Nc1ccccc1)c1cnc(N2CCCCC2)c2ccccc12`, the inhibition was determined as 1.06%. Regarding `COc1cccc(CN(C(=O)COc2ccc(Cl)c(C)c2)C2CCS(=O)(=O)C2)c1` (stereo unspecified), the inhibition is -2.76%. In the case of `OC(CSc1ccccc1Cl)CN1CCN(c2ccccc2F)CC1` (stereo unspecified), the inhibition was active: 74.3%. Turning to `Cc1ccc(C2CC(=O)n3nc(-c4ccc(Cl)cc4)nc3S2)cc1` (stereo unspecified), the inhibition was determined as 8.82%.

For `Cc1ccc(Sc2ccc(N3CCC(C(=O)Nc4cc(C)cc(C)c4)CC3)nn2)cc1`, the inhibition is 8.29%.

On to `O=C(Cn1cnc2c(nnn2-c2ccccc2)c1=O)NCc1ccco1`, for which the inhibition was active: 39.9%. `Cc1c(Cl)cccc1-n1ncc(C(=O)NCCN2CCN(C)CC2)c1C1CCN(C(=O)OC(C)(C)C)CC1`: the inhibition came to 9.87%.
